# Publication PMC12136788
# Changes are numbered by the printed parent chain. The list shows a part of the results.
# T1: UNK ZnF1-3 (human, UniProt Q9C0B0 31-174)
# T1 sequence: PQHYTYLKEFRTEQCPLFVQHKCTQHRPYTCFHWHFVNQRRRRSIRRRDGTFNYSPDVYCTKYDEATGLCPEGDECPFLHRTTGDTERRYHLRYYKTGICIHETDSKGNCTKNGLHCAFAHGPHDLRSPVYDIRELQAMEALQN
# B1: chr5:138634757:138634758:+_ENSMUSG00000036968_ENSMUST00000110934|mus_mus|FALSE|FALSE (ssRNA)
# RNA: GGGAGUUCUACAGUCCGACGAUCAUAUAGCCCACAUGUCUACCCCAUCUAACCCGAGUAUUGCUUCACUCUCUUCCAGCAUCCUGUUCUUAUUCACAGAUUGAUGGUAUACGGCCUCAUGUUUGCAGUGUAUAUUGGUUCUUGCAACAGAGGAUUGAGCAUCA
# B2: chr3:176767854:176767855:-_ENSG00000177565_ENST00000430069|hu_hu|hu_hu_hu_mus_False|38_88 (ssRNA)
# RNA: GGGAGUUCUACAGUCCGACGAUCGACAUCCUUGUUACUGGGCACGUCUUGCCCUCCUUCCCGUAUGCAGUGUCUAAGCACGAGCUGCGUAGGGCCACUGGUGCUGUUCUCACUGAGGUUCCAGAUUCUUGCCGUGGAGUCUCCCAACAGAGGAUUGAGCAUCA
# B3: chr14:56483160:56483161:+_ENSMUSG00000075592_ENSMUST00000168479|mus_mus|FALSE|FALSE (ssRNA)
# RNA: GGGAGUUCUACAGUCCGACGAUCAAUUCCUUUAUCUCCCACAGAUGUUGAAGACUGCCCUACUUGCAGAAGUCCCGGGCUAACCUUCUCUUUGAUACCACAACCCCCUGGCACCACCGAUAAACUGAUGAUUUUGGAGGGAAUCAACAGAGGAUUGAGCAUCA
# B4: chr1:215793774:215793775:+_ENSG00000136636_ENST00000259154|hu_hu|motif|central (ssRNA)
# RNA: GGGAGUUCUACAGUCCGACGAUCAUAGGGAACUUUCUUUCUUCCAAGGAAUCCUCCCCCUUCAAAUCCUCCUUUCUUCCGGAACUCGGUUUUAUUUUCAUUUUCAUCUUCUGAUGACCUUUUCUUGGAUUCUGAAAAACCUUCCAACAGAGGAUUGAGCAUCA
# B5: chr17:60744165:60744166:+_ENSG00000011028_ENST00000303375|hu_hu|FALSE|FALSE (ssRNA)
# RNA: GGGAGUUCUACAGUCCGACGAUCGUUGAGGUACUUGAGGGGCGAGUUGUCCGACCACUGCCAGCCUCCGCUCGUGUCCAAGUCAUUCAAGCCGAUCCACAGGGUGGAGCUGUACCCAGUGAGGAGGCCGUUGAUGUAGGUCUGCAACAGAGGAUUGAGCAUCA
# B6: chr7:56126341:56126342:+_ENSG00000146731_ENST00000540286|hu_mus|hu_hu_hu_mus_True|88_108 (ssRNA)
# RNA: GGGAGUUCUACAGUCCGACGAUCCAUAUUUCUCCUUUUGGCUCUGCGCAGAGCAACGAUCCCUUCUUUCGCAAGGGCAUCUAAGGAAAAGGGGUCAAUCCCCUUUUGAUUAAUAACGACAAAUCCUUUAUCUGAGUCACCACACAACAGAGGAUUGAGCAUCA
# B7: chrX:98862621:98862622:+_ENSMUSG00000034160_ENSMUST00000044475|mus_hu|mus_mus_mus_hu_False|28_58 (ssRNA)
# RNA: GGGAGUUCUACAGUCCGACGAUCCUGCAUCUCCUUUAGAGUGUUUCCCAUAUUAGAGUAGGCAUCAGCAAAGGUAGGACUAAUUCGAAUAGCCUCCUUAUAAUGCAUCAGUGCUUCCUGCAGUUUUCCCUGCUGCUGCAGUACCAACAGAGGAUUGAGCAUCA
# B8: chr7:7679991:7679992:-_ENSG00000106399_ENST00000396682|hu_hu|hu_hu_hu_mus_False|58_58 (ssRNA)
# RNA: GGGAGUUCUACAGUCCGACGAUCUGGGAUGAAUCUUUUCCAGCUUCCCCACGAAGCACACGGGCCGGUCGAUAUACUGAGCUAGCAUGCUGGCGUUGACGCGCGCUUUGGGGAGCUGCAUUAUGUCCUCCAUGAUUCUGCCGCCAACAGAGGAUUGAGCAUCA
# B9: 33346105_33346518_650_3pUTR_ENSG00000198042_ENST00000360128|human|control|control (ssRNA)
# RNA: GGGAGUUCUACAGUCCGACGAUCUACUAAGCCGGACCCGUUCCCAGAGACGCCGAGGAAAAGCCGCUCGUUCUAUAACCUUCAUAUACAAGUAGCACUGUCCUUUCUCUUCUUUAAUAGUGGCAUACUGACUAUUUGCCAGGGCAACAGAGGAUUGAGCAUCA
# B10: chr6:41757443:41757444:+_ENSG00000214736_ENST00000398881|hu_mus|hu_hu_hu_mus_False|38_38 (ssRNA)
# RNA: GGGAGUUCUACAGUCCGACGAUCGAACCGUGCAGAGGCAACAUCUCAGCCGACACUGGGGGAUGGGGGGGCAGUGGGGGGGGGUUCAGGCAAGGAGAAGAAAAGUGCUUCAGCUGCCACUCAGGUAGGAUCUUGUGGUCACAGCAACAGAGGAUUGAGCAUCA
# B11: chr3:176767854:176767855:-_ENSG00000177565_ENST00000430069|hu_hu|hu_hu_hu_mus_False|88_108 (ssRNA)
# RNA: B2 RNA with A36G, G99C
# B12: chr8:121455507:121455508:-_ENSG00000172172_ENST00000306185|hu_mus|motif|central (ssRNA)
# RNA: GGGAGUUCUACAGUCCGACGAUCUGCAGUUUGUUGGAUGCUAUAACCGCAAGUUUGCCAGGGGGCUGCAUUUUGCCAUCGGAGAGAUACCACAUUCGAGCAAAAGUGGCCCAUUGCUGGGGCGCCCUAGAGAAGCUGGACAUGCAACAGAGGAUUGAGCAUCA
# B13: chrX:45232703:45232704:-_ENSMUSG00000031099_ENSMUST00000088973|mus_hu|motif|central (ssRNA)
# RNA: GGGAGUUCUACAGUCCGACGAUCAGAUGGGACCCAUCGUUUAAAUUCAUUCAUCCAGUUGUGUAAAGUAGACUUUGGAACGGAAACCAUGUGAGGUCCAGGAAUAUUUCGGUAGUGUUUCAGGUAACCAAGCAAAGCAAUUGUCAACAGAGGAUUGAGCAUCA
# B14: 4331192_4342889_2322_3pUTR_ENSMUSG00000054611_ENSMUST00000075856|mouse|control|control (ssRNA)
# RNA: GGGAGUUCUACAGUCCGACGAUCCUUUUUGGCCACUGUACUAUAGGGACUCCAGUGAGGGCUAACUUGGGAUCGCUACUGGCAAGUUCUUCCAGCAAAAUCUUUACAUCAGCAAUCAGAGCAUCUUCGUCUUCUAUUCCUGUGCAACAGAGGAUUGAGCAUCA
# B15: 106643454_106643786_2940_ncRNA_ENSMUSG00000020719_ENSMUST00000133426|mouse|control|control (ssRNA)
# RNA: GGGAGUUCUACAGUCCGACGAUCAGAGUAGCCUCUGUCAUAGUUUUCCCUGUCUCUAAAGGUAUUAAAUCCACCCCUUUUGCCUGCAGAGUAUCUGUCACGACGAUCGUCCUUCAUGCCUCCUCUACCCCUGGAACGACCUGACAACAGAGGAUUGAGCAUCA
# B16: chr6:91700303:91700304:+_ENSMUSG00000030096_ENSMUST00000032185|mus_hu|FALSE|FALSE (ssRNA)
# RNA: GGGAGUUCUACAGUCCGACGAUCGAGAACUGGAGUGAUCACAGCCCAGCUGUACUUCAUCCAGGGCCCGGGCCGAUAGCCAAUCAUGUCCUCAAUACCAUCAUAAAGGUUAUCACCUCCAUAUAUCCAGGCAAUAACAAAACACAACAGAGGAUUGAGCAUCA
# B17: chr22:46125322:46125323:+_ENSG00000130638_ENST00000252934|hu_mus|FALSE|FALSE (ssRNA)
# RNA: GGGAGUUCUACAGUCCGACGAUCAAAGAUAGAGAUGUCAUCCUUUGUCAGCUGCUCCUCACCCACUAGCUUGGCUAUCACUAUGUCUAACAGUGUGAUCCUUUCCUGGUUGCUGAGUUUGCCAUACAUAGCUUCCACCAGUUCCAACAGAGGAUUGAGCAUCA
# B18: chr11:109522620:109522621:+_ENSMUSG00000020612_ENSMUST00000049527|mus_mus|FALSE|FALSE (ssRNA)
# RNA: GGGAGUUCUACAGUCCGACGAUCAUCCCCUUCAUCACCUUGCUGAAUAACCGUCUCUCCAGCAAUAAAGGAGACUGGAAACAUAGCAUCAAAAAUGUCACUUCUCUCGUUAUCAUCAAGGUGUGAAAACAGCACAUUCUUUUCCAACAGAGGAUUGAGCAUCA
# B19: 104650277_104654612_1041_CDS_ENSMUSG00000025133_ENSMUST00000026126|mouse|control|control (ssRNA)
# RNA: GGGAGUUCUACAGUCCGACGAUCCUGCUCCAAGAAAUGAGAGCUAACUUGCUCCAUCGAGCCCAAUAGCUUUGCAGCUUGAACACGAACCACCCAGGAGCCAUCACUGACCAUGUGGCAAAUUUUUCCAAAUGCAUCAUCAACCAACAGAGGAUUGAGCAUCA
# B20: chr5:21408736:21408737:-_ENSMUSG00000042453_ENSMUST00000161356|mus_hu|mus_mus_mus_hu_False|58_58 (ssRNA)
# RNA: GGGAGUUCUACAGUCCGACGAUCGUUGACAGAGUUGUAGAUGGUGGCUUCAUGGAACUGGAAAGGGGAGCAGCCAAUGCUAUUGGAAGAGGAAGGAAGGCACUGGGUCUGUACGAGCUGCCAGGAAUCCGAUCUUGCAUCCUUCAACAGAGGAUUGAGCAUCA
# B21: 50152517_50153095_583_3pUTR_ENSG00000139644_ENST00000395006|human|control|control (ssRNA)
# RNA: GGGAGUUCUACAGUCCGACGAUCUCUUGAUCUCCAUGUUCGGCCUUUUCAAUAAUGAGUUGAGUAUCAAAAAGGACGAAGCCACACAUGACCACCAGUCCCACAUACAGGUUUGCCUGGAAAAGCCAAAUGGAUCCAAAGAAACAACAGAGGAUUGAGCAUCA
# B22: chr10:75830775:75830776:+_ENSG00000035403_ENST00000372755|perfect_dup|FALSE|FALSE (ssRNA)
# RNA: GGGAGUUCUACAGUCCGACGAUCCAUAGUUUCCACUACCUCUGCCACUGUAAGAUAUUCCAAAAUUCCUUUGCAAACCCUAAUAAUUUUACGAACCUCAGCCUCAUCGAAGGUAAGCAGUAGGUCAGAUGUGCCAGAAAGGAUCAACAGAGGAUUGAGCAUCA
# Target: T1, UNK ZnF1-3
# Assay: nsRBNS (natural sequence RNA bind-n-seq); RBNS binding buffer (assumed for nsRBNS): 25 mM Tris pH 7.5, 150 mM KCl, 3 mM MgCl2, 0.01% Triton X-100, 500 ug/ml BSA, 20 U/ml SUPERase-In, 4 C; UNK is unkempt and MSI1 is Musashi-1; names of the RNAs are library labels; protein concentration not given here; high values mean tight binding
row,Binder,binding signal [enrichment R]
1,B1,0.696
2,B2,0.49
3,B3,0.927
4,B4,0.42
5,B5,0.928
6,B6,1.01
7,B7,0.915
8,B8,0.495
9,B9,1.13
10,B10,1.29
11,B11,0.409
12,B12,1.1
13,B13,1.33
14,B14,1.33
15,B15,1.1
16,B16,0.92
17,B17,0.734
18,B18,0.939
19,B19,1.4
20,B20,1.84
21,B21,1.58
22,B22,1.38
